From PubChem BioAssay AID624417 (National Center for Advancing Translational Sciences (NCATS), 2012)
About 6,400 (1.6%) of roughly 410,000 compounds were called active. The shares of active, inactive and inconclusive entries below differ from those in the screen. The call rests on the fitted dose curve; in most records, active means well fitted inhibition curve with a large enough effect; inconclusive means small, poorly fitted or top-dose-only effect; inactive means no such curve, though single readings can be large or run the other way. No potency is given beside an inconclusive call; the fits are too rough.

The compounds below were run against Glucagon-like peptide 1 receptor (Homo sapiens) (UniProt P43220) (assay: qHTS of GLP-1 Receptor Inverse Agonists (Inhibition Mode)). Settings: HEK293 GLP-1R CRE-luciferase, luminescence, 24 h, GLP-1R form is constitutively active; activity change, negative = inhibition: at 38.3 µM (top of the series) unless noted.
UniProt P43220, sequence (P43220 whole entry, looked up): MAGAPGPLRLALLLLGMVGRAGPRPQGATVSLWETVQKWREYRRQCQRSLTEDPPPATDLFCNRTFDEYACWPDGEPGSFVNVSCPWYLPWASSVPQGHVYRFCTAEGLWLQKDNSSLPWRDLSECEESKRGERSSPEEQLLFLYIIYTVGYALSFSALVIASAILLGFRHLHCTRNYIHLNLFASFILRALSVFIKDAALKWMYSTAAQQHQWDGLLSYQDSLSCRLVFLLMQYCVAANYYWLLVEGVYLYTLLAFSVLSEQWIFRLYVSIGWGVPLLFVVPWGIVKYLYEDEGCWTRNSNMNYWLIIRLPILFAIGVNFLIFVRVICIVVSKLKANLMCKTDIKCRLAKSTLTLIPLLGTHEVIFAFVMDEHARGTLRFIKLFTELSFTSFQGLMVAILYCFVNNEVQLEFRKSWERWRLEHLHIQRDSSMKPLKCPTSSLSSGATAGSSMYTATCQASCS
Method in brief: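 Constitutively active GLP-1R drives a cAMP-responsive luciferase in stably transfected HEK293 cells; test compounds are added after overnight (12 h) attachment and left 24 hr, and signal loss in luminescence marks inhibition.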
Further: nearly all actives have a fitted effect of over 55% in size.
On the % scale 0 is the no-effect control and ±100 the full control effect; potency means the concentration at half of the fitted maximal effect; tags describe the fitted curve by direction and shape.

SMILES | Potency | activity change, negative = inhibition
COC(=O)[C@]12CCCCC=C1N(Cc1ccc3c(c1)OCO3)C(=O)[C@H](CC(=O)NCC1CCCCC1)C2 | inconclusive [inhibitor, single point] | –
OCCN1CCN(CC#CCC(c2ccccc2)c2ccccc2)CC1 | inconclusive [inhibitor, partial curve, poor fit] | –
CCOC(=O)c1c(C)oc2ccc(N(C(=O)c3ccncc3)S(=O)(=O)c3ccc(F)cc3)cc12 | inconclusive [inhibitor, partial curve, poor fit] | –
O=C(N[C@@H]1CCC(=O)N(CC[C@H](Sc2ccc(Br)cc2)c2ccccc2)CC1)OCc1ccccc1 | inconclusive [inhibitor, partial curve, poor fit] | –
Cc1ccc2nc(-c3ccc(NC(=O)CN(c4ccccc4C)S(C)(=O)=O)cc3)sc2c1 | inconclusive [inhibitor, full curve, poor fit] | –
COc1ccc(OC)c(CCNC(=O)c2cc3cccc4c3n2CCS4)c1 | inconclusive [inhibitor, single point] | –
CCN(Cc1ccccc1)S(=O)(=O)c1ccc(C(=O)Nc2nnc(C3CC3)o2)cc1 | inconclusive [inhibitor, partial curve, poor fit] | –
CCOc1ccc(/C=N/NC(=O)c2ccccc2NC(=O)c2ccc(OC)cc2)cc1 | – | inactive: -29.9%
CCOC(=O)C1=NNC(C(=O)c2ccccc2)C1c1ccc(Cl)cc1 (stereo unspecified) | inconclusive [inhibitor, full curve] | –
O=C(Oc1ccccc1)c1ccccc1C(=O)Oc1ccccc1 | inconclusive [inhibitor, partial curve, poor fit] | –
COc1ccccc1NC(=S)N(c1ccccc1)C(C)C | – | inactive: 0.15%
Cc1ccc(NC(=O)/C(=C\c2cccc(Br)c2)NC(=O)c2ccco2)cc1 | inconclusive [inhibitor, partial curve, poor fit] | –
Cc1ccc(C(=O)N2CCCC(CCC(=O)N3CCN(c4ccccn4)CC3)C2)s1 (stereo unspecified) | inconclusive [inhibitor, single point] | –
CCOc1ccccc1NC(=O)CSc1nc2ccccc2nc1N1CCCC1 | inconclusive [inhibitor, partial curve, poor fit] | –
O=c1c(NCCc2ccc(Cl)cc2)nccn1-c1ccccc1 | inconclusive [inhibitor, single point] | –
CCc1nc2c(OCc3ccc(C(F)(F)F)cc3)cccn2c1N(C)C(=O)c1ccc(C)cc1 | inconclusive [inhibitor, single point] | –
